Assay results: the supplement of paper PMC10126150
Sequences with one replicate were seen in a single cluster, so their values are uncertain.

System: ATP
Assay: switch fluorescence ratio, 500 uM ATP over buffer (Cy3 cluster intensity, sum of 5 cycles each) (fold (ratio)); higher = stronger signal-on switching upon ATP binding; sequences stand for … in TCGTCGGCAGCGTCAGATGTGTATAAGAGACAGTTTTTTTTTTTTTTTTTTTTTTTTT…TC
Conditions: aptamer strand: ATP DNA aptamer (quencher-CACCTGGGGGAGTATTGCGGAGGAAGG + anchor), 100 nM annealed; ATP concentration: 500 uM; one replicate
Method in brief: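 Exposure to 500 uM ATP lasted 15 min at 22 °C before imaging, and a selection-buffer image was taken beforehand, for Cy3-labelled switching-strand clusters on a modified Illumina MiSeq flow-cell annealed to 100 nM quencher-labelled ATP aptamer. Five buffer/ATP cycles were run with NaOH stripping and re-annealing between them. The fluorescence ratio per cluster is summed target-cycle over summed buffer-cycle Cy3 intensity, averaged per switch-domain sequence. Clusters outside 100-1000 RFU were excluded.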

Sequence	switch fluorescence ratio
GCTGACTGAG	0.981
CAAGCTAGCA	1
ACATTCGGCC	1.02
TAGCATGTAG	1.05
AACTGGTGAC	1.07
CACTAGAGGG	0.99
GGTAAGGTGT	1.25
TCTACGCTGG	1.72
ACAGCGGGG	1.02
AAACACAACA	1.04
AACTTAGACA	1.02
GTGTCTGACG	0.995
GGTTTCGTGG	0.931
CAGAAAGCTC	1.02
TGGTGTTAAT	0.939
TCGTTCTGTT	0.965
AGGATCCGAC	1.02
TTCATAAACA	1.01
TGCTGTGGTG	1.02
CAGTAGTTTC	1.03
TGAACGTGAG	1.02
ATCGAGTTTT	0.982
CCGCGACTGG	2.33

Sequence	switch fluorescence ratio
CTTACTTGAT	1.03
CACGGTGCGT	1.03
ATAGGTTGCA	0.97
AGAGAGGTAG	0.922
TTTTCGTAAC	1.01
ATATGCACGC	1.06
ATCATGCTGG	0.981
TATAAATTCA	1.04
TTTAATAGGA	0.999
TCGGATAGGC	0.991
AATTGCGCA	1.08
CAGTTTTCTA	0.98
TGATACTATT	0.937
GGATTGGAGG	1.02
CGTGGGAAAC	1
GAGAATGATA	1.01
CAGGGGATAG	1.03
CTTATGATT	1.03
TTATCGTGAC	0.965
TAGAAGCGTC	1.05
CAGCGTTGGG	0.989
TTTAAAAGTG	1.02
AAGTCCTCGA	0.993

Sequence	switch fluorescence ratio
GGCATTGTA	0.98
AAAAATGAGG	1.02
CCGAGTATTA	1.87
GATGCGTTTC	1.04
TATGTCGCTC	1.05
AGAACGTACA	1.68
AGAATGGCCT	0.999
AGATTATCGG	0.999
TGGAGGGGAA	1.2
TACATCCATA	1.02
GATACCATTT	1.03
GGCATATCCT	1.02
TCGTGAGCAC	1.3
CAGGGGATGG	0.936
TATACACTTG	1.07
TTTCTGGG	0.957
TACATCTTAT	0.974
TACGAGCAGC	1.06
GTTAACTAGT	1
GGCTTCCATT	1.02
TAGCTACTTA	1.05
AGCTGCACA	1.06
CTGTTAATCG	0.948

Sequence	switch fluorescence ratio
ACTCTCGAGA	1.03
ATGTAAGCC	0.99
AAAGTCAAGT	1.02
GGGCTTGAA	0.961
AATACTGATA	1.02
CATTTAAGAC	1.05
TTAACCGCTG	1.13
CATTATAGCA	1
GTGGGCCGGT	0.984
TGGGCGGTTG	0.934
AATTCTTCTT	1.01
CTGAATCCCG	1
TGTCAATATT	1.03
GATGCCGTGC	1.01
CAATATATAA	0.971
CCAAGAGTCT	1
TGGTTCGCCC	0.97
GTGTAGTGAG	0.962
ACACTGGATC	1.02
TTATTTCGG	0.999
GCATTATTTT	1.02
TGCCCCCAAT	1.08
AGAAAAGTGA	0.962

Sequence	switch fluorescence ratio
CTGGGTGACC	1
CTTGGCGACG	1.01
ACAGGTCCGT	1.06
TGTTGCGTCG	0.963
GTGAATGTTT	0.985
ACGCTCTCAA	1.18
CCGGCCAGGC	1.19
CCACGAGATG	1.1
TTCAGGGTC	1.04
GCAAGATGTA	0.999
ACTACACCAC	1.43
CTGACGAGTG	1.05
AGCACGGCCC	1.01
GTTAATTGTG	1.02
CGGATGGAGC	1
TACTTGGTAC	1.03
ATTAGGCCAG	1.05
CATAGGCGGC	0.971
CACTTATTGT	0.979
TCCGGAAGG	1.03
CAAGAGGAGG	0.972
GCGGGTTGGT	1.02
TCGTAACA	0.948

Sequence	switch fluorescence ratio
TTATAGGCTG	1.09
GCATTTTTGT	0.989
GAGTATCTAC	1.03
GCATACCTAT	1.04
AGATTAATTA	1.04
GCATCCCTGG	1.28
TTATTATCTA	1.02
TTATAAACAA	1.02
CTTCACCAC	1.04
AGAAGTTATG	0.979
CTGCCACTAT	1.22
TCTTTACAAT	1.68
GAATATCCGA	1.01
AAAGCCGGGT	1.1
GTCATTTTAA	0.992
ATAGAGTATA	0.964
TGCCCTTAAC	1.03
CATATGTGTC	0.92
GGCCTAGGTT	1.04
TATGATATAA	1.01
GTATACGCTC	1.01
CCTGTGTGGA	0.965
TCATGAGCTA	1

Sequence	switch fluorescence ratio
GCTCGCGGTG	1.05
TGAAATGATT	0.928
ACGCGAGGTC	1.17
TATAGAGAT	0.991
GCATATATAG	0.997
ACCTTAAAGG	0.988
CCGCGAAGAA	3.84
CTACCAGGCG	1.64
TAGAAAATAT	0.97
CATGGCTTA	0.997
GCGACCTGAT	1.05
CGCGCGCCTT	1.01
CAACGCGGAT	1.25
AGTTCTGCCC	0.927
TTGCACGGAA	1.11
TCGAGACTA	0.984
TGGAATCG	0.993
TAGTAATTAC	0.999
GCCACAAGTG	1.1
